Laboratory results: paper PMC4336329 (PLoS ONE, 2015)
Among all 310,000 compounds or so, about 2,200 (0.71%) showed an effect of 50% or more. The effect is printed as a negative number. The list shows a part of the results.

Biological target: human ether-à-go-go-related gene (hERG) potassium channel (human, UniProt Q12809)
Experiment: primary screen, population patch clamp on CHO cells stably expressing hERG

Chain of human ether-à-go-go-related gene (hERG) potassium channel (Q12809 whole entry, looked up): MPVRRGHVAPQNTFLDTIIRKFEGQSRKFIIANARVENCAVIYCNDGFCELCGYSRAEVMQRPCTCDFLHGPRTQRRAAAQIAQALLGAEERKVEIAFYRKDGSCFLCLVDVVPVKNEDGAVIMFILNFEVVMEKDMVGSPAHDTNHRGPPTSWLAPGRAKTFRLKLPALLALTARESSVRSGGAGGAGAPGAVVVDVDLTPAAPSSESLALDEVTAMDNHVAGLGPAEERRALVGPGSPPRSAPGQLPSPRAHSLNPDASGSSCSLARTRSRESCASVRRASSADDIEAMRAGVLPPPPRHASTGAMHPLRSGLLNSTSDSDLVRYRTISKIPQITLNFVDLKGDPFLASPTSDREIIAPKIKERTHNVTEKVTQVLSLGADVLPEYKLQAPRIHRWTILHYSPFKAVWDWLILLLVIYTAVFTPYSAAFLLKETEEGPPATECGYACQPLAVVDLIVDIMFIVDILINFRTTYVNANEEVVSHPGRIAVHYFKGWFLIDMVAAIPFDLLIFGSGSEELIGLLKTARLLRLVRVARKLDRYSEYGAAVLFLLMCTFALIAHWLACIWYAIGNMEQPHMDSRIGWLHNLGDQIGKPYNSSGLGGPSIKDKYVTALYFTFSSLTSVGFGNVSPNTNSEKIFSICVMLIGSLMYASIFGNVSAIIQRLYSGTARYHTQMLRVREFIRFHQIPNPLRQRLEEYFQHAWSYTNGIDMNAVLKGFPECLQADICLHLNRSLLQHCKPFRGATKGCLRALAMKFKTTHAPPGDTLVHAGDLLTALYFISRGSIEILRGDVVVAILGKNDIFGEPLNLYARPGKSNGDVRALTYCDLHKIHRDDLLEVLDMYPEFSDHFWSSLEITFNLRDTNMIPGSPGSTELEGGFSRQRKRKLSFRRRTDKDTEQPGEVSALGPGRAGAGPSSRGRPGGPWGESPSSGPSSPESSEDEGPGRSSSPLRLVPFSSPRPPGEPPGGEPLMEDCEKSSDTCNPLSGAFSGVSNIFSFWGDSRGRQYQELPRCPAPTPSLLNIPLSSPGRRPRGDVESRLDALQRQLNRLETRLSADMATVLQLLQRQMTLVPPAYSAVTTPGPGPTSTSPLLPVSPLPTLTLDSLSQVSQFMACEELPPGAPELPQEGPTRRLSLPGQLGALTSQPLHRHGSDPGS

SMILES | hERG current change (%, negative = inhibition) at 1uM [%]
O=C(O)CSCCC(=O)Nc1ccc(F)cc1 | -9.27
CCOC(=O)CSc1nc2cc(C(=O)NCC3CCCO3)ccc2c(=O)n1Cc1ccco1 (stereo not drawn) | -18.2
CCCCCn1c(Sc2ccccc2)nc2c1c(=O)[nH]c(=O)n2C | 8.06
CSc1nc(N(C)NC(=O)c2cccc(C)c2)c2ccccc2n1 | 3.46
COc1cccc(S(=O)(=O)NCC(=O)N2CCCCCC2)c1 | 25
Cc1ccc(NC(=O)Cc2ccc(Cl)cc2)cc1S(=O)(=O)N1CCCCCC1 | 10.8
Cc1cc(C)nc(SCc2nnc(SCC(=O)Nc3ccccc3C)n2Cc2ccco2)n1 | 1.01
O=C(Nc1nnc(-c2cccnc2)o1)c1cccc(Cl)c1 | 3.43
Cc1ccccc1-n1c(SCC(=O)N2CCCC2)nnc1-c1ccccn1 | 18.4
CSc1nc2oc3c(c2c2nncn12)CC(C)(C)SC3 | -1.53
Cc1ccc2c(CN3CCC(C(N)=O)CC3)cc(=O)oc2c1C | 15.2
CC(=O)N/N=C(\C)C1COc2ccccc2O1 (stereo not drawn) | 7.92
CCOc1ccc2[nH]c(=O)c(CN(CCN3CCOCC3)Cc3nnnn3C(C)(C)CC)cc2c1 | 12.1
O=C1CNC(=O)c2c(nc3n2CCC3)N1 | 5.97
O=C(O)CCNC(=O)C12CC3CC(CC(C3)C1)C2 | 19.2
O=C1C2C3C=CC(C3)C2C(=O)N1/N=C/c1ccc(-c2ccccc2[N+](=O)[O-])o1 (stereo not drawn) | 0.69
COc1ccc(Cl)cc1S(=O)(=O)N1CCC(C(=O)NCCC2=CCCCC2)CC1 | -10.9
O=C(CCN1C(=O)/C(=C/c2ccco2)SC1=S)Nc1ccc(C(=O)O)c(O)c1 | 13
CC(=O)Nc1ccc(NC(=O)c2cccc(-c3cc4ccccc4oc3=O)c2)cc1 | -0.272

SMILES | hERG current change (%, negative = inhibition) at 1uM [%]
O=C(NCC1CC1)c1ccc2c(c1)S(=O)(=O)c1cc(Cl)ccc1C2=O | -1.27
C=CCNc1cc(C(F)(F)F)nc(-c2ccccn2)n1 | 0.638
Cc1nc2ccc(Cl)cc2c(-c2ccccc2)c1C(=O)[O-].N[NH3+] | 12.1
CC1CN(S(=O)(=O)N2CCOCC2)CCN1S(=O)(=O)N1CCOCC1 (stereo not drawn) | 14.8
CCCCCN(C(=O)CN1CCC(Cc2ccccc2)CC1)c1c(N)n(CCCC)c(=O)[nH]c1=O | 7.45
NS(=O)(=O)c1ccc(NC(=O)C2Cc3ccccc3C(=O)O2)cc1 (stereo not drawn) | 2.87
Cc1cc(C)c(OCC(=O)OCC(=O)NC2CCCCCCC2)c(C)c1 | 6.08
C#CCNC(=O)C1=C[C@H](c2csc3ccccc23)C[C@H](OCCCCO)O1 | 3.8
COc1ccc(C2CC(c3ccc(F)cc3)Nc3nc(N)nn32)cc1 (stereo not drawn) | -0.311
Cc1cccc(C(=O)N2CCC(Cc3ccccc3)CC2)c1[N+](=O)[O-] | -3.03
Cc1cccc(C(=O)OCC(=O)Nc2ccc3c(c2)OCCO3)c1O | 10.5
CCCN(CCC)S(=O)(=O)c1ccc(C(=O)N2CCOCC2)cc1 | -0.629
O=C(COC(=O)CNC(=O)c1ccc(Cl)c([N+](=O)[O-])c1)NNC(=O)c1ccccc1F | -2.97
Cc1cc(C)c(C#N)c(Nc2cccc(Br)c2)n1 | 10.3
CSCCC(NC(=O)COc1ccccc1)C(=O)NC1CCC(C)CC1 (stereo not drawn) | 2.98
CCOC(=O)C1CCN(C(=O)c2sccc2Cl)CC1 | 12.5
COc1ccc(CC(=O)NNS(=O)(=O)c2ccc(F)cc2)cc1 | 13.8
Cn1c(C(=O)O)cc2cc(F)ccc21 | -4.02
COc1ccc(NC(=O)CN(C)C(=O)c2cn(-c3ccccc3)nc2-c2ccc(OC)cc2)cc1 | 4.36

SMILES | hERG current change (%, negative = inhibition) at 1uM [%]
Cc1cc(F)ccc1NC(=O)C1CCCO1 (stereo not drawn) | 9.7
Cc1ccccc1-c1nc(CS(=O)CC(=O)N2CCC3(CC2)OCCO3)c(C)o1 (stereo not drawn) | -1.03
CCOc1ccc(S(=O)(=O)NCCC(=O)N(C)CC(=O)Nc2ccc(N3CCOCC3)cc2)cc1 | 8.64
Cn1c(=O)oc2cc(S(=O)(=O)N3CCCC(C(=O)NCCN4CCOCC4)C3)ccc21 (stereo not drawn) | 9.37
O=C1C=C(Nc2ccccc2C(=O)O)c2ccccc2C1=O | 13.9
Cc1nnc(NC(=O)CCn2cnc3ccccc3c2=O)s1 | 13.7
CC1CCCN(CCCNS(=O)(=O)c2ccc3c(c2)CCN3C(=O)C2CC2)C1 (stereo not drawn) | 11.8
NC(=O)c1ccc(NC(=O)CCC(=O)c2cccs2)cc1 | 9.21
C1CSC2(N1)C1CC3CC2CC(C1)C31NCCS1.Cl (stereo not drawn) | 9.84
COc1ccc(NC(=O)COC(=O)CCCC2=NS(=O)(=O)c3ccccc3N2)cc1Cl | 10.3
Cc1nn(C)cc1S(=O)(=O)N1CCN(c2ccc(F)cc2)CC1 | 4.55
CC(=O)Nc1ccc(OCC(O)Cn2cnc3ccccc32)cc1 (stereo not drawn) | 14.2
O=C(NCc1n[nH]c(=S)n1-c1ccccc1)c1ccc(S(=O)(=O)N2CCOCC2)cc1 | 1.75
COc1ccc(C(C)NC(=S)NC2CCCCC2)cc1OC (stereo not drawn) | 11.8
O=C(c1ccc(-n2cnnn2)cc1)N1CCN(C(c2ccccc2)c2ccccc2)CC1 | -5.72
CCc1ccccc1N(CC)C(=O)c1cn(C)c(=O)c2cc(OC)c(OC)cc12 | 13.4
CCCCC(=O)Nc1cccc(NC(=O)CC)c1 | 10.3
Cc1ccc(C)c(NC(=O)COC(=O)CSc2ccccc2)c1 | 5.01
CCN(CC(=O)NCc1cccs1)CC(=O)Nc1ccccc1C | 4.48
